± gives the standard error. This sample is rich in variants without activity.
B1: glmS ribozyme (parent)
chain: AUAAAAGCGCCAGAACUACAGAAAUGUAGUUGACGAGGAGGAGGUUUAUCGAAUUUUCGGCGGAUGCCUCCAAA

Experiments:
Conditions in all cases: with glucosamine-6-phosphate
glucosamine-6-phosphate [1] = variants of: B1; test: self-cleavage kobs at 640 uM GlcN6P; higher = faster cleavage; RNA array
Outline: (§1)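 Glucosamine-6-phosphate (40 μM to 10 mM) in HEPES/KCl/Mg(OAc)2 buffer was flowed over sequenced MiSeq chips, and tiles were imaged over ~14 h. Barcoded ribozyme variants there had been transcribed in situ by E. coli RNA polymerase and were tracked through a hybridised Cy3 probe at 37 °C. One- or two-exponential decay fits to per-tile medians, normalised to baseline and to non-cleaving reference variants, gave kobs. kcat and KM came from weighted Michaelis–Menten fits across concentrations.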

glucosamine-6-phosphate [2] = variants of: B1; test: self-cleavage kobs at 160 uM GlcN6P; higher = faster cleavage; RNA array
Outline: as §1

glucosamine-6-phosphate [3] = variants of: B1; test: self-cleavage kobs at 2500 uM GlcN6P; higher = faster cleavage; RNA array
Outline: as §1

glucosamine-6-phosphate [4] = variants of: B1; test: self-cleavage kobs at 10000 uM GlcN6P; higher = faster cleavage; RNA array
Outline: as §1

A12C A48C A53U U54G G60U A64U
self-cleavage kobs at 640 uM GlcN6P (glucosamine-6-phosphate [1]): < 1e-05 s⁻¹

C34U C50U A52G U55A
self-cleavage kobs at 640 uM GlcN6P (glucosamine-6-phosphate [1]): < 1e-05 s⁻¹

U30C C58U C67G C71A
self-cleavage kobs at 640 uM GlcN6P (glucosamine-6-phosphate [1]): 0.000584 ± 0.00013 s⁻¹
self-cleavage kobs at 160 uM GlcN6P (glucosamine-6-phosphate [2]): 0.000188 ± 5.3e-05 s⁻¹
self-cleavage kobs at 2500 uM GlcN6P (glucosamine-6-phosphate [3]): 0.000197 ± 4.3e-05 s⁻¹

C16U U65C
self-cleavage kobs at 640 uM GlcN6P (glucosamine-6-phosphate [1]): 0.000152 ± 2.2e-05 s⁻¹
self-cleavage kobs at 160 uM GlcN6P (glucosamine-6-phosphate [2]): 8.27e-05 ± 1.8e-05 s⁻¹
self-cleavage kobs at 2500 uM GlcN6P (glucosamine-6-phosphate [3]): 0.000332 ± 6.8e-05 s⁻¹
self-cleavage kobs at 10000 uM GlcN6P (glucosamine-6-phosphate [4]): 0.000697 ± 0.00011 s⁻¹

U30C G43C C71G
self-cleavage kobs at 640 uM GlcN6P (glucosamine-6-phosphate [1]): < 1e-05 s⁻¹

A33G G35A U46C U47A G60C
self-cleavage kobs at 640 uM GlcN6P (glucosamine-6-phosphate [1]): < 1e-05 s⁻¹

G37U U47A U56A C61U
self-cleavage kobs at 640 uM GlcN6P (glucosamine-6-phosphate [1]): < 1e-05 s⁻¹

G32U A36U G62U
self-cleavage kobs at 640 uM GlcN6P (glucosamine-6-phosphate [1]): < 1e-05 s⁻¹

G37C G59A C67G
self-cleavage kobs at 640 uM GlcN6P (glucosamine-6-phosphate [1]): < 1e-05 s⁻¹
self-cleavage kobs at 160 uM GlcN6P (glucosamine-6-phosphate [2]): < 1e-05 s⁻¹

G32C A39U G60U
self-cleavage kobs at 640 uM GlcN6P (glucosamine-6-phosphate [1]): < 1e-05 s⁻¹
self-cleavage kobs at 160 uM GlcN6P (glucosamine-6-phosphate [2]): < 1e-05 s⁻¹
self-cleavage kobs at 2500 uM GlcN6P (glucosamine-6-phosphate [3]): < 1e-05 s⁻¹

A36G G40U
self-cleavage kobs at 640 uM GlcN6P (glucosamine-6-phosphate [1]): < 1e-05 s⁻¹
self-cleavage kobs at 160 uM GlcN6P (glucosamine-6-phosphate [2]): < 1e-05 s⁻¹
self-cleavage kobs at 10000 uM GlcN6P (glucosamine-6-phosphate [4]): < 1e-05 s⁻¹

A36G G40C
self-cleavage kobs at 640 uM GlcN6P (glucosamine-6-phosphate [1]): < 1e-05 s⁻¹
self-cleavage kobs at 160 uM GlcN6P (glucosamine-6-phosphate [2]): < 1e-05 s⁻¹
self-cleavage kobs at 2500 uM GlcN6P (glucosamine-6-phosphate [3]): < 1e-05 s⁻¹

A12G G32A C34G C71A
self-cleavage kobs at 640 uM GlcN6P (glucosamine-6-phosphate [1]): < 1e-05 s⁻¹

A12G C34A
self-cleavage kobs at 640 uM GlcN6P (glucosamine-6-phosphate [1]): < 1e-05 s⁻¹
self-cleavage kobs at 160 uM GlcN6P (glucosamine-6-phosphate [2]): < 1e-05 s⁻¹
self-cleavage kobs at 2500 uM GlcN6P (glucosamine-6-phosphate [3]): < 1e-05 s⁻¹
self-cleavage kobs at 10000 uM GlcN6P (glucosamine-6-phosphate [4]): < 1e-05 s⁻¹

U31G G41A U46G
self-cleavage kobs at 640 uM GlcN6P (glucosamine-6-phosphate [1]): 7.29e-05 ± 2.3e-05 s⁻¹

G13A A33U G66U
self-cleavage kobs at 640 uM GlcN6P (glucosamine-6-phosphate [1]): < 1e-05 s⁻¹
self-cleavage kobs at 2500 uM GlcN6P (glucosamine-6-phosphate [3]): < 1e-05 s⁻¹

U31A A42C C70G
self-cleavage kobs at 640 uM GlcN6P (glucosamine-6-phosphate [1]): < 1e-05 s⁻¹
self-cleavage kobs at 160 uM GlcN6P (glucosamine-6-phosphate [2]): < 1e-05 s⁻¹

A15G G35U U45C
self-cleavage kobs at 640 uM GlcN6P (glucosamine-6-phosphate [1]): < 1e-05 s⁻¹
self-cleavage kobs at 160 uM GlcN6P (glucosamine-6-phosphate [2]): < 1e-05 s⁻¹
self-cleavage kobs at 2500 uM GlcN6P (glucosamine-6-phosphate [3]): < 1e-05 s⁻¹

A15U C68G
self-cleavage kobs at 640 uM GlcN6P (glucosamine-6-phosphate [1]): 2.81e-05 ± 1.4e-05 s⁻¹
self-cleavage kobs at 2500 uM GlcN6P (glucosamine-6-phosphate [3]): 4.48e-05 ± 1e-05 s⁻¹

A15C A33U G63C
self-cleavage kobs at 640 uM GlcN6P (glucosamine-6-phosphate [1]): < 1e-05 s⁻¹

C19A U54C C58A C68G
self-cleavage kobs at 640 uM GlcN6P (glucosamine-6-phosphate [1]): 9.88e-05 ± 2.4e-05 s⁻¹
self-cleavage kobs at 2500 uM GlcN6P (glucosamine-6-phosphate [3]): 0.00036 ± 0.0001 s⁻¹

A12U G29A A52U
self-cleavage kobs at 640 uM GlcN6P (glucosamine-6-phosphate [1]): 4.42e-05 ± 1.6e-05 s⁻¹

A12U A39U G51U A52C U54A U57C G62C
self-cleavage kobs at 640 uM GlcN6P (glucosamine-6-phosphate [1]): < 1e-05 s⁻¹

G38U G62C
self-cleavage kobs at 640 uM GlcN6P (glucosamine-6-phosphate [1]): < 1e-05 s⁻¹
self-cleavage kobs at 160 uM GlcN6P (glucosamine-6-phosphate [2]): < 1e-05 s⁻¹

C16G U65G
self-cleavage kobs at 640 uM GlcN6P (glucosamine-6-phosphate [1]): 0.000149 ± 6.2e-05 s⁻¹
self-cleavage kobs at 160 uM GlcN6P (glucosamine-6-phosphate [2]): 6.11e-05 ± 1.6e-05 s⁻¹
self-cleavage kobs at 2500 uM GlcN6P (glucosamine-6-phosphate [3]): 0.000455 ± 0.00013 s⁻¹
self-cleavage kobs at 10000 uM GlcN6P (glucosamine-6-phosphate [4]): 0.00143 ± 0.00036 s⁻¹

G29U A48G
self-cleavage kobs at 640 uM GlcN6P (glucosamine-6-phosphate [1]): < 1e-05 s⁻¹

G13U A33U A53G C58U G59A
self-cleavage kobs at 640 uM GlcN6P (glucosamine-6-phosphate [1]): < 1e-05 s⁻¹
self-cleavage kobs at 10000 uM GlcN6P (glucosamine-6-phosphate [4]): < 1e-05 s⁻¹

G37A G38C
self-cleavage kobs at 640 uM GlcN6P (glucosamine-6-phosphate [1]): < 1e-05 s⁻¹
self-cleavage kobs at 160 uM GlcN6P (glucosamine-6-phosphate [2]): < 1e-05 s⁻¹
self-cleavage kobs at 10000 uM GlcN6P (glucosamine-6-phosphate [4]): < 1e-05 s⁻¹

From the supplement of paper PMC7125110
